In publication PMC4336329 (PLoS ONE, 2015):
In all, about 310,000 compounds went through this assay and about 14,000 (4.5%) showed an effect of 50% or more. Effects have a minus sign here. Some of the results follow.

Molecular target: human ether-à-go-go-related gene (hERG) potassium channel (human, UniProt Q12809)
Assay: primary screen, population patch clamp on CHO cells stably expressing hERG
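Also: peak tail current of the secondary pulse compared with the same well before compound.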

Chain of human ether-à-go-go-related gene (hERG) potassium channel (Q12809 whole entry, looked up): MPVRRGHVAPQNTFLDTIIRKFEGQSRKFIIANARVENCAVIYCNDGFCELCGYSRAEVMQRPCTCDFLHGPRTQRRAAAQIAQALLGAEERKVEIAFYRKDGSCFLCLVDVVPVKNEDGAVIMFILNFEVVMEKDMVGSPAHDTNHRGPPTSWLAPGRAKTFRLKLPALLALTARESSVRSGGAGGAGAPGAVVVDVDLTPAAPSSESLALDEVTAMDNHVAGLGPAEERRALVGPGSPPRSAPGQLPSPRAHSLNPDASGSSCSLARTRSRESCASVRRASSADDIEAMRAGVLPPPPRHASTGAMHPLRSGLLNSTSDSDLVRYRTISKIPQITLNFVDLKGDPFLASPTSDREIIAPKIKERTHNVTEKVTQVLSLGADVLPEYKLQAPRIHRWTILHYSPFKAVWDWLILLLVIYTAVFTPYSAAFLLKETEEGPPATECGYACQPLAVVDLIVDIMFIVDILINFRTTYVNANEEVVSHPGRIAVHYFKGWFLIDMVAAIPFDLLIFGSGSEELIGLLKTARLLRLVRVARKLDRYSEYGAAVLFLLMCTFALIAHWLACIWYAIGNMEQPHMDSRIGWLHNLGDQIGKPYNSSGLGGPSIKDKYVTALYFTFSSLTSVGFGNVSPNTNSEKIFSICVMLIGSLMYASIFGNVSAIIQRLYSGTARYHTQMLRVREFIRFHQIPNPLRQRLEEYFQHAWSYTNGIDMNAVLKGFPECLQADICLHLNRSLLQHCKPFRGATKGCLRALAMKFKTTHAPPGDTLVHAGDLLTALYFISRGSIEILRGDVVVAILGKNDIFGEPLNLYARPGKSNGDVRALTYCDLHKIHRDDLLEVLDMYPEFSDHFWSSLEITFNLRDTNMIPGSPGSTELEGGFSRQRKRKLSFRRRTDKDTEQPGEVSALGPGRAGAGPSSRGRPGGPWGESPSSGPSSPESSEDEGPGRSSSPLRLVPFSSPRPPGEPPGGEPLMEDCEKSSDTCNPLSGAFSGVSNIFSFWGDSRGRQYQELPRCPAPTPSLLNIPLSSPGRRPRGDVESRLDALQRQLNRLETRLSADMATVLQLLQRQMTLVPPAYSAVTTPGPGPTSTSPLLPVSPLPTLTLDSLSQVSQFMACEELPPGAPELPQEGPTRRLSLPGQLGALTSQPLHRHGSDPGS

Row | Structure (SMILES) | hERG current change (%, negative = inhibition) at 10uM [%]
1 | CC(C)C(NC(=O)c1cccs1)C(=O)NC1=NCCS1 (stereo not shown) | 7.5
2 | COc1ccc(Nc2nc(N)c([N+](=O)[O-])c(NCCO)n2)cc1 | -3.25
3 | Cc1cc(=O)oc2c3c(cc(OCC(=O)NCc4ccccn4)c12)OC(C)(C)CC3 | -26.5
4 | CC(C)(C)CNc1cc(N2CCOCC2)ccc1[N+](=O)[O-] | -6.56
5 | COc1cc(OC)cc(C(=O)N2CC(=O)Nc3ccccc32)c1 | 8.35
6 | CC(=O)c1ccc(N2CCN(C(=O)COc3ccc(F)cc3)CC2)c(F)c1 | -71.5
7 | CC1(C)CC(=O)C2=C(C1)N(Cc1ccccc1)C(=O)C2(NC(=O)C(C)(C)C)C(F)(F)F (stereo not shown) | -13.8
8 | Cc1csc(=O)n1CCC(=O)OCC(=O)NNC(=O)c1ccccc1 | -15.4
9 | COc1ccc(S(=O)(=O)Nc2c(C)n(C)n(-c3ccccc3)c2=O)cc1Br | -6.83
10 | Cc1ccc2cccc(O)c2[n+]1[O-] | 4.03
11 | CC(C)OC(=O)CC1C(=O)NCCN1C(=S)NC(=O)c1ccc(F)cc1 (stereo not shown) | -1.92
12 | CS(=O)(=O)N(Cc1ccc(C(=O)N2CCc3ccccc3C2)cc1)c1ccccc1 | -13.1
13 | Cc1ccc2nsnc2c1NS(=O)(=O)c1c(C)ccc2nsnc12 | -26.2
14 | Cc1ccc(N2C(=O)c3ccc(C(=O)Nc4cccnc4)cc3C2=O)c(C)c1 | -3.01
15 | COC(=O)c1[nH]c2cc(OC)ccc2c1NC(=O)c1ccc2c(c1)OCO2 | -0.956
16 | COC(=O)CCCC1=CC2=C(c3ccccc3)C(=O)C(C)(OC(=O)C3CCCC3)C(=O)C2=CN1c1ccccc1 (stereo not shown) | -8.8
17 | Cn1ncc(Br)c1C(=O)N/N=C/c1cccc(OC2CSC2)c1 | -8.23
18 | S=C1Nc2ccccc2Sc2ccccc21 | 21.7
19 | O=C(COC(=O)c1cc(S(=O)(=O)N2CCCC2)ccc1O)Nc1ccc(SC(F)F)cc1 | -57.5
20 | CCn1c(C)nc2cc(C(=O)N3N=C(CCOC)CC3(O)C(F)(F)F)ccc21 (stereo not shown) | -7.02
21 | Cc1cccc(CS(=O)(=O)Cc2ccc(C(=O)NCCCN3CCOCC3)o2)c1 | -12.6
22 | O=C(N[C@@H]1C[C@H]2CC[C@@H]1C2)c1ccco1 | 4.88

Row | Structure (SMILES) | hERG current change (%, negative = inhibition) at 10uM [%]
23 | Cc1nn(-c2ccccc2)c(N2CCCC2)c1/C=N/NC(=S)Nc1ccccc1C(F)(F)F | 7.24
24 | CCCCn1c(CN(Cc2ccccc2)Cc2ccccc2)nc2c1c(=O)n(C)c(=O)n2C | -4.74
25 | NC(=O)CC(NC(=O)Cc1cccc2ccccc12)c1ccc(NC2CCC2)c([N+](=O)[O-])c1 (stereo not shown) | -1.82
26 | CC(C)(C)c1ccc(C(=O)NCC(=O)N/N=C/c2cccnc2)cc1 | 0.348
27 | C=C[C@]1(C)C[C@@H](OC(=O)CSCCN(CC)CC)[C@]2(C)C(C)CC[C@]3(CCC(=O)[C@H]32)[C@@H](C)[C@@H]1O.O=C(O)/C=C/C(=O)O (stereo partly shown) | -68.3
28 | CCN(Cc1ccncc1)Cc1cn(C)nc1-c1ccc(Oc2ccccc2)cc1 | -35.8
29 | CCOC(=O)C1(Cc2cccc(OC)c2)CCN(Cc2ccc3c(c2)OCCO3)CC1 | -38
30 | CC1(C)Cc2c(cnn2-c2ccccc2)C(NC(=O)CCc2ccncc2)C1 (stereo not shown) | -68.8
31 | COCCNc1nc(C)cc(-c2cc(-c3ccc(Cl)cc3)on2)n1 | 6.74
32 | Cc1ccc(NC(=O)CN(C)CC(=O)NC2CCCc3ccccc32)cc1 (stereo not shown) | -21.3
33 | COc1ccccc1C(=O)Nc1nnc(-c2ccco2)s1 | 9.73
34 | CCOC(=O)N1CCN(C(=O)CSCC(=O)Nc2nc(-c3ccccc3)cs2)CC1 | -50.5
35 | Cc1cccc([C@@H]2[C@@H]3C(=O)N(Cc4ccccc4)C(=O)[C@@H]3[C@]3(C)C(=O)N(c4cccc(F)c4)C(=O)N23)c1 | 2.17
36 | COc1ccc(NS(=O)(=O)c2cccc(C(=O)N/N=C(\C)c3ccc(-n4ccnc4)cc3)c2)cc1 | 19.3
37 | CCOc1cccc(CNCCNC(=O)c2nonc2N)c1.Cl | -7.85
38 | O=C(CSc1nnc(Cc2ccccc2)n1Cc1ccccc1)NCc1ccco1 | -36.6
39 | Fc1cc(F)nc(NCc2ccccc2)n1 | 1.59
40 | O=C(Nc1ccccc1C(=O)N1CCCCC1)c1cc(F)c(F)cc1Cl | 1.47
41 | C/C=C/C1=CC(=O)C[C@H](c2ccc(F)cc2)C1 | -34.3
42 | CCOC(=O)c1sc2nccc(N(C)C)c2c1N=CN(C)C | -18.5
43 | O=C(NC1CCCC1)C1CCCN(C(=O)Nc2ccccc2)C1 (stereo not shown) | 4.42
44 | COc1ccc(N(C(=O)Cn2nnc3ccccc32)C(C(=O)NCc2ccco2)c2ccncc2)cc1 (stereo not shown) | 11.3

Row | Structure (SMILES) | hERG current change (%, negative = inhibition) at 10uM [%]
45 | CCCn1c(SCC(=O)Nc2ccccc2N2CCOCC2)nc2c1c(=O)n(C)c(=O)n2C | -15.3
46 | Cc1cc(=O)oc2cc(OCC(=O)Nc3cccc(S(=O)(=O)N(C)C)c3)ccc12 | -10.8
47 | CCOC(=O)Cc1csc(NC(=O)/C=C\c2ccccc2)n1 | -23.1
48 | CN(CC(=O)Nc1ccccc1Cl)C1CCS(=O)(=O)C1 (stereo not shown) | -4.9
49 | CN1C(=O)/C(=C/c2ccc(O)c([N+](=O)[O-])c2)NC1=S | 27.4
50 | COc1c(F)c(F)c(C(=O)Nc2ccc(NC(=O)Cc3ccccc3)cc2)c(F)c1F | 24.4
51 | CP(=O)(O)CN1CCCCC1 | 10.6
52 | Cl.FC(F)(F)c1cccc(C2NCc3ccccc3-n3cccc32)c1 (stereo not shown) | -3.13
53 | COc1ccc(OCC(=O)NNC(=O)c2ccccc2OCc2c(C)noc2C)cc1 | -9.19
54 | COc1ccccc1C/C(N)=N/OC(=O)c1cccc([N+](=O)[O-])c1C | -9.76
55 | COc1ccc(N2C(=O)[C@@H]3[C@H](C2=O)[C@H](C(=O)c2ccc(OC(C)=O)cc2)N2N=CC=C[C@@H]32)cc1 | 0.585
56 | CCOC(=O)c1[nH]c2ccc(F)cc2c1NC(=O)C(C)N1CCc2cc(OC)c(OC)cc2C1 (stereo not shown) | -10.6
57 | CCOc1ccc(N(CC(=O)NCCSCc2ccco2)S(=O)(=O)c2ccc(F)cc2)cc1 | 2.3
58 | CC(C)OC(=O)c1cccc2c1C(=O)c1ccccc1-2 | 5.86
59 | COC(=O)C1(C(F)(F)F)C2C=CC(C2)N1S(=O)(=O)c1ccc(C)cc1 (stereo not shown) | 2.19
60 | Cn1c(=O)c2cn3c(c2n(C)c1=O)C(c1ccccc1)CC(c1ccccc1)=N3 (stereo not shown) | -18.4
61 | CN(CC(=O)NC1CCCCC1)S(=O)(=O)c1cccc2nsnc12 | -0.675
62 | CCn1c(Cc2ccc(OC)cc2)nc2ccccc21 | 6.11
63 | COCCN(C(=O)c1ccc2ccccc2c1)c1c(N)n(Cc2ccccc2)c(=O)[nH]c1=O | 16.9
64 | Cc1ccc(S(=O)(=O)NC(=NC2CCCCC2)c2ccc(Cl)cc2)cc1 | 7.95
65 | COc1ccc(C(C)=O)cc1COc1ccc(-n2cnnn2)cc1 | -41.3
66 | O=C(c1cccnc1)N1CCN(c2ccccc2Cl)CC1 | -18.5

Row | Structure (SMILES) | hERG current change (%, negative = inhibition) at 10uM [%]
67 | CCCCOc1ncnc2c1[nH]c1ccc(C)cc12 | 3.04
68 | O=C(c1ccco1)N1CCN(c2cc(N3CCOCC3)c(F)cc2[N+](=O)[O-])CC1 | -49.6
69 | NC(=NC(=O)c1ccc(OCC(F)(F)F)nc1)c1ccccc1 | 4
70 | O=C(NC1CCCCCC1)c1c(F)c(F)c(F)c(F)c1F | -9.7
71 | COc1ccc2c(c1O)C13CCN(C)C(C2)C1CCC(=O)C3 (stereo not shown) | -5.17
72 | O=C(NNC(=O)C1CCN(c2ncccn2)CC1)c1ccc(Cl)cc1 | 0.113
73 | O=C(NCC1CCCO1)Nc1cc(Cl)cc(Cl)c1 (stereo not shown) | 8.42
74 | Cc1ccc(NC(=S)N/N=C/c2ccc([N+](=O)[O-])s2)cc1 | -3.04
75 | C/C(=N\Nc1ncc(Cl)cc1Cl)c1ccc(N2CCOCC2)cc1 | 11.1
76 | COc1ccccc1Oc1c(C)oc2c(CN3CCN(C)CC3)c(O)ccc2c1=O | 1.2
77 | O=C(NC(=S)NCc1cccnc1)c1cccc2ccccc12 | 17.2
78 | CCc1ccc(CNC(=O)C2CCC(=O)N2C2CCCCC2)cc1 (stereo not shown) | -8.53
79 | O=S(=O)(c1cc(-c2nnc(-c3ccc(Br)cc3)o2)ccc1Br)N1CCCCCC1 | 6.06
80 | COc1cccc(/C=C2\SC(=S)N(CCCC(=O)Nc3cc(C)on3)C2=O)c1 | 19
81 | Cl.NCCc1nnc(SCc2ccccc2)o1 | 18.2
82 | Cc1ccc(/C=N/NC(=O)c2cccc3ccccc23)o1 | 20.8
83 | O=C(NCc1ccc(Cl)cc1)c1ccc(-n2cccn2)nc1 | 20.5
84 | O=C(O)CNC(=S)N(Cc1ccccc1)Cc1ccccc1F | 33.7
85 | C=C(c1ccccc1)P(=O)(O)O | 17.8
